Assay results: PubChem BioAssay AID652104 (National Center for Advancing Translational Sciences (NCATS), 2013)
Out of some 410,000 compounds screened, about 7,200 (1.8%) were called active. Inconclusive means that the source gave no clear call. Such entries were picked first, then a sample of the others. The call rests on the fitted dose curve; in most records, active means well fitted activation curve with a large enough effect; inconclusive means small, poorly fitted or top-dose-only effect, or another doubt; inactive means no such curve, though single readings can be large or run the other way. Potencies of inconclusive entries are left out as doubtful fits.

Experiment: qHTS of TDP-43 Inhibitors; further: nearly all actives have a fitted effect of over 50% in size
Conditions: TDP-43 expressing yeast growth rescue, BacTiter-Glo, 24 h; series mostly up to 46.1 µM
Summary of the method: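 Readout is BacTiter-Glo luminescence of cell growth, so inhibitors register as activators. TDP-43-expressing yeast at OD600=0.02 in galactose medium, after raffinose pregrowth to mid-log, were incubated with compound for 24 hr at 30 deg C.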
Potency means the concentration at half of the fitted maximal effect; tags describe the fitted curve by direction and shape.

SMILES	Potency
C/C(=N\O)C(=O)C(CN1CCCCC1)CN1CCCCC1	inactive
O=C(COC(=O)CCSc1ccc(Cl)cc1)NCc1ccccc1	inconclusive [activator, single point]
COc1ccc(-c2nc(N)nc(C)c2Oc2ccccc2Br)c(O)c1	inconclusive [activator, single point]
CCCCOc1ccc(C(=O)NCc2nnnn2-c2ccc(C)c(C)c2)cc1	active: 20 µM
O=C(CS(=O)(=O)c1ccccc1)Nc1nc(-c2ccccc2)cs1	inconclusive [activator, single point]
O=C(CSc1cccc(C(F)(F)F)c1)NC(=O)c1ccccc1	inconclusive [activator, full curve]
Cc1cccc(N2CCN(C(=O)c3c(C)nn(Cc4ccccc4Cl)c3C)CC2)c1C	inconclusive [activator, single point]
CC(Oc1ccc(Cl)cc1Cl)c1ccnc2nc(N3CCOCC3)nn12 (centres undefined)	inconclusive [activator, single point]
CCNc1nc(-c2cc3ccccc3o2)cs1	active: 14.1 µM
COc1ccc(N(C(=O)c2ccc(C(C)(C)C)cc2)S(=O)(=O)c2ccc(Cl)cc2)cc1	inactive
COc1ccc(CNC(=O)c2cnn3c(C)c(Cc4c(F)cccc4Cl)c(C)nc23)cc1	inconclusive [activator, partial curve, poor fit]
CN(C(=S)Oc1ccc(C(=O)Nc2ccccc2)cc1)c1ccccc1	active: 12.6 µM
O=C1C(Cl)=C(N2CCOCC2)C(=O)N1CCc1ccccc1	inconclusive [activator, partial curve]
CCCCCn1c(=O)c2ccccc2n2c(=S)[nH]nc12	active: 11.2 µM
O=C(NCCc1csc2nc(-c3ccccc3F)nn12)C(=O)Nc1cc(F)ccc1F	inconclusive [activator, partial curve]
CCn1c(=NC(=O)CSC(C)=O)sc2cc(OC)ccc21	active: 14.1 µM
O=C(NNC(=O)c1cccc(-n2cccc2)c1)c1ccc(F)cc1	inconclusive [activator, partial curve]
COc1ccc(-n2nc([N+](=O)[O-])c(=NCCc3ccc(OC)c(OC)c3)n2O)cc1	inconclusive [activator, single point]
Cc1ccc2c(c1)nc1c3ccccc3nc(-c3ccccc3N)n21	inconclusive [activator, partial curve, poor fit]
Cc1ccccc1OCC(=O)N1CCC(c2nc3ccccc3s2)CC1	inconclusive [activator, single point]
CCCSc1ncc(Cl)c(C(=O)N(Cc2ccc(Cl)cc2)Cc2ccco2)n1	inconclusive [activator, partial curve]
CCNC(=S)Nc1ccc2c(c1)c(=O)n(C)n2-c1cc(C)cc(C)c1	inconclusive [activator, partial curve]

SMILES	Potency
CCC(=O)N1CCc2cc(Br)cc(S(=O)(=O)N3CCN(c4cc(C)ccc4C)CC3)c21	inconclusive [activator, partial curve]
COc1cc(-c2cc3n(C)c(C)c(CCC(=O)NC4CCCCC4)c(=O)n3n2)cc(OC)c1OC	inactive
O=C(NC1CCN(Cc2ccccc2)CC1)c1ccc(Cn2c(=O)c3ccccc3n(Cc3cccc(F)c3)c2=O)cc1	inactive
O=C(C[C@H]1C[C@H](C(=O)N2CCCCC2)[C@@]2(CCc3ccccc3)c3[nH]c4ccc(Cl)cc4c3CCN2C1=O)NCCc1ccccn1	inconclusive [activator, single point]
CCOC(=O)C1(C)CCCCN1C(=O)c1cccc(Cl)c1 (centres undefined)	inactive
N#C/C(C(N)=O)=C1/CCc2ccccc2N1	inconclusive [activator, single point]
N#Cc1ccc(NC(=O)C2Cc3ccccc3CN2S(=O)(=O)c2ccc(F)cc2)cc1 (centres undefined)	inconclusive [activator, single point]
Cc1ccccc1S(=O)(=O)NC(=O)C1(C)CCN1C(=O)Cc1ccc(Cl)cc1Cl (centres undefined)	inactive
O=C(O)C(Cc1ccccc1)N1C(=O)/C(=C/c2ccccc2)SC1=S (centres undefined)	inconclusive [activator, partial curve]
COc1ccc(OC)c(CC2C(=O)Nc3ccc(Br)cc32)c1 (centres undefined)	inconclusive [activator, single point]
O=C(COc1ccc(Br)cc1)NCC1COc2ccccc2O1 (centres undefined)	active: 25.1 µM
O=C(c1ccccc1Cl)N1CCN(S(=O)(=O)c2cccs2)CC1	inconclusive [activator, partial curve]
COC(=O)N/N=C/c1cn(CCCOc2ccccc2)c2ccccc12	inconclusive [activator, single point]
COc1ccc2c(c1)c(=O)oc1cc(OCC(=O)N3CCc4ccccc4C3)ccc12	inactive
COc1cccc(NC(=O)Cn2c(=O)n(Cc3ccc(C(=O)NCc4ccc(C)cc4)cc3)c(=O)c3ccccc32)c1	inconclusive [activator, full curve, poor fit]
CC(C)(C)c1ccc(NC(=O)N2CCCN(c3ccc([N+](=O)[O-])cn3)CC2)cc1	inconclusive [activator, partial curve]
COc1ccc2cc(C3=CCCC3(C)C(=O)O)ccc2c1 (centres undefined)	active: 3.55 µM
O=C(CSCc1ccccc1Br)Nc1ccccc1	inconclusive [activator, partial curve]
Cc1ccc2c(=O)c(C(=O)c3ccc(Cl)cc3)cn(CC(=O)Nc3ccc4c(c3)OCCO4)c2n1	inactive
O=C(CS(=O)(=O)c1cn(Cc2cccc(F)c2)c2ccccc12)N1CCOCC1	inconclusive [activator, full curve, poor fit]
CC(=O)NC1C(Oc2ccccc2C)OC(CO)C(O)C1O (centres undefined)	inactive
O=S(=O)(Nc1ccc(C(O)(C(F)(F)F)C(F)(F)F)cc1)c1ccc(Cl)c2nonc12	active: 20 µM
